Paper PMC4336329 (PLoS ONE, 2015)
The campaign covered roughly 310,000 compounds. About 14,000 (4.5%) showed an effect of 50% or more. The effect is printed as a negative number. This is one part of the list.

Target: human ether-à-go-go-related gene (hERG) potassium channel (human, UniProt Q12809)
Test: primary screen, population patch clamp on CHO cells stably expressing hERG
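Further: peak tail current of the secondary pulse compared with the same well before compound.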

Sequence of human ether-à-go-go-related gene (hERG) potassium channel (Q12809 whole entry, looked up): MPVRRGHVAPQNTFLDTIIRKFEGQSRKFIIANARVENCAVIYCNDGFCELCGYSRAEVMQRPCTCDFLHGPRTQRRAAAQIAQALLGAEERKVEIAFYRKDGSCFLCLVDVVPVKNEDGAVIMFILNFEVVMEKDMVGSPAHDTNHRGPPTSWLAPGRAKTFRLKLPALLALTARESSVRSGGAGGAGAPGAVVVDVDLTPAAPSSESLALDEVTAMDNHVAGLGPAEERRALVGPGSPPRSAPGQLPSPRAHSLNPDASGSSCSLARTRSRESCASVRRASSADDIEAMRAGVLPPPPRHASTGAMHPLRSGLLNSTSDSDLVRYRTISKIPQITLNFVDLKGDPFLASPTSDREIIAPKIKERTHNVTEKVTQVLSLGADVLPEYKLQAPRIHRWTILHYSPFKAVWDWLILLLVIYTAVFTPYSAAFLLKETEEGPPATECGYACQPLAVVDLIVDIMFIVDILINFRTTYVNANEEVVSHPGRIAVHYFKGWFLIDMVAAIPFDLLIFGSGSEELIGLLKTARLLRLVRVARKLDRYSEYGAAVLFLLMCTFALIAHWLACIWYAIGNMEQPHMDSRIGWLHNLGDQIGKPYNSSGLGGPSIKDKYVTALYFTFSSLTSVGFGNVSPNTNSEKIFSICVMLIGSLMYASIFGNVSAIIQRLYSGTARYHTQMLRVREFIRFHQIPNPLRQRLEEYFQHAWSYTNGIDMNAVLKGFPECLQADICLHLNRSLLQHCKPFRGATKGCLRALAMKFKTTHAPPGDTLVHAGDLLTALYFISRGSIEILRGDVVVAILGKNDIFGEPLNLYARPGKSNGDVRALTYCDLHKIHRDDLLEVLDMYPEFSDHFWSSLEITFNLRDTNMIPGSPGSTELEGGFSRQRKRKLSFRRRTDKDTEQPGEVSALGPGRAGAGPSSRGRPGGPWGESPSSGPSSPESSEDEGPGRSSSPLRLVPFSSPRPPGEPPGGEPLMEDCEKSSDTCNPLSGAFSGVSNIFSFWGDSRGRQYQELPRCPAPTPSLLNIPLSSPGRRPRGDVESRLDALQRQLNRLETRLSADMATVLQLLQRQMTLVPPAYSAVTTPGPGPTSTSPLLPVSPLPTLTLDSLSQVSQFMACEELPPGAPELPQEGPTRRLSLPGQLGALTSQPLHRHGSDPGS

Row | Structure (SMILES) | hERG current change (%, negative = inhibition) at 10uM [%]
1 | CC(=O)Nc1ccc(NC(=S)NC(=O)c2cc3ccccc3o2)cc1 | 8.36
2 | COc1ccc(-c2[nH]ncc2CN(C)Cc2ccccn2)c(OC)c1 | -10.2
3 | COc1ccc(C)cc1NC(=O)CSc1nnc(-c2cc3cccc(OC)c3o2)n1N | 21.9
4 | CCOC(=O)c1c(NC(NC(C)=O)C(Cl)(Cl)Cl)sc(C(C)=O)c1C (stereo not drawn) | -11.1
5 | COc1cc(S(=O)(=O)NC2CCSc3ccccc32)ccc1NC(C)=O (stereo not drawn) | 21.7
6 | Fc1cccc(Cl)c1CSc1nnc2ccccn12 | 9.48
7 | Cc1cccnc1NC1OC(=O)c2ccccc21 (stereo not drawn) | 3.66
8 | COc1ccc(CCC(=O)Nc2ccc(S(=O)(=O)N3CCCC3)cc2)cc1OC | -11.8
9 | CC1CCN(C(=O)CSc2nnc(N)s2)CC1 | 29.8
10 | CCCn1c(N)[n+](CC(=O)c2ccco2)c2ccccc21.[Br-] | -11.1
11 | Cc1ccccc1-n1c(CSC(=N)N)nc2ccccc2c1=O.Cl | -17.1
12 | Cc1cccc(SC2CCN(Cc3nc(CC4CC4)no3)CC2)c1 | -17.9
13 | CC1(C)S[C@@H]2[C@H](NC(=O)COc3ccccc3)C(=O)N2C1C(=O)OCC1CCCCC1 (stereo partly drawn) | -46
14 | COc1ccc2nc(N/C(N)=N/C(=S)Nc3ccccc3)nc(C)c2c1 | 15.2
15 | O=C(Cn1cnc2ccccc2c1=O)NCCC(=O)Nc1ccc(F)cc1 | 25.4
16 | COC(=O)c1ccc(/C=C2\Oc3ccccc3NC2=O)cc1 | 15.5
17 | COc1ccc(OCc2nnc(SCC(=O)Nc3ccccc3F)o2)cc1 | 14.9
18 | O=C(CSc1nc2ccccc2c(=O)[nH]1)c1ccc(O)c(O)c1 | -4.84
19 | O=C(CSc1nnc(-c2cccnc2)o1)N1CCCCC1 | 9.4
20 | C/C(CC(=O)NCc1ccc(Cl)cc1)=N\NC(=O)c1ccccc1F | -19.5
21 | CC(=O)c1ccc(-c2cccc(-c3nc4ccccn4c3NC3CCCCC3)c2)cc1.O=C(O)C(F)(F)F | 4.12
22 | COc1cc(C(=O)NCc2nnc(SCC(=O)N3CCCC3)o2)cc(OC)c1OC | 12.5
23 | O=C(O)C(=O)O.c1ccc(-c2ccccc2OCCCN2CCCCCC2)cc1 | -80.1

Row | Structure (SMILES) | hERG current change (%, negative = inhibition) at 10uM [%]
24 | Cc1ccc(C(=O)/C=C/Nc2ccc(S(=O)(=O)Nc3onc(C)c3C)cc2)cc1 | -5.96
25 | Brc1cnc(N2CCCCC2)nc1N1CCOCC1 | -6.45
26 | COc1ccc(OC)c(C(=O)c2c(C)oc3cc(Br)c(O)c(CN(C)C)c23)c1.Cl.O | -33.4
27 | Cc1cc(C)cc(NC(=O)CN(C)S(=O)(=O)c2cnc[nH]2)c1 | 12.6
28 | CC(=O)c1c(C)[nH]c(C(=O)OCC(=O)N2CC(=O)Nc3ccccc32)c1C | 5.94
29 | COc1ccc(NC(=O)C23CC4CC(C2)CC(n2cnc(Br)n2)(C4)C3)cc1Cl | 3.08
30 | COc1ccc(C(=O)NCC(=O)NCC(c2ccco2)N(C)C)cc1OC (stereo not drawn) | -9.54
31 | CCOC(=O)c1cc(NC(=O)N(CC)CC)c(C)nc1C | 5.59
32 | Cc1ccc(F)cc1CNC(=O)C1CCC(=O)N(CC2CCCCC2)C1 (stereo not drawn) | 3.34
33 | Cc1ccc(C)c(S(=O)(=O)N/N=C2/CCCc3ccccc32)c1 | 10.6
34 | COc1ccccc1NC(=O)Nc1ccccc1C(N)=O | 0.636
35 | O=C(NCCC1=CCCCC1)c1coc(=O)c(Br)c1 | -4.02
36 | CCCCCCN1CC(O)=C(c2ccccc2)C1=N | -7.31
37 | Cc1c(C(=O)NCC(c2ccco2)N(C)C)oc2c(Cl)cccc12 (stereo not drawn) | -36.9
38 | CCCCNC(=O)c1cc2c(=O)n3cccc(C)c3nc2n(Cc2ccncc2)c1=N | -75.1
39 | CN(C(=O)CSc1ncccn1)C1CCS(=O)(=O)C1 (stereo not drawn) | 10.8
40 | NC(=O)CN1CCOCCOCCOCCOCCOCC1 | 16.3
41 | O=C(CCCCn1c(=O)[nH]c2ccsc2c1=O)NCc1ccc2c(c1)OCO2 | -7.96
42 | COc1ccc(-c2[nH]ncc2CN2CCC(OCc3ccccc3)CC2)c(F)c1 | -80.7
43 | CCC(CC)C(=O)Nc1cc(C)cc(C)c1 | 0.735
44 | C(=C\c1cc(/C=C/c2ccccc2)ncn1)/c1ccccc1 | 20.5
45 | O=C(O)CCC(=O)NNC(=O)COc1ccc(Cl)cc1Cl | 26.4
46 | COc1ccc(F)cc1S(=O)(=O)NC1CCCC1 | 2.41

Row | Structure (SMILES) | hERG current change (%, negative = inhibition) at 10uM [%]
47 | COCc1cc(C)nc(Nc2ccccc2OC)c1C#N | 11.5
48 | CCOC(=O)c1ccccc1N/C=C/C(=O)c1cccs1 | -14.9
49 | Cn1c(=O)cc(SCC(=O)NCC2CCCO2)c2ccc(Cl)cc21 (stereo not drawn) | -7.37
50 | COc1ccccc1CN1C(=O)[C@@H]2Cc3c([nH]c4ccccc34)C(C)(C)N2C1=O | 5.96
51 | COc1cc(S(=O)(=O)NC2CCCCC2C)ccc1Cl (stereo not drawn) | -3.62
52 | COc1cccc(NC(=O)CSc2nnc(NC(=O)C3CCC3)s2)c1 | 20.2
53 | O=[N+]([O-])c1cc(/C=N/N2CCN(Cc3ccccc3)CC2)ccc1Cl | 6.96
54 | COc1ccc2c(C)cc3nnnn3c2c1 | 4.98
55 | COCCN(C(=S)Nc1ccc(C)cc1C)C(C)c1ccco1 (stereo not drawn) | -12.5
56 | CCCn1c(SCC(=O)Nc2ccccc2Cl)n[nH]c1=O | 0.117
57 | CCOC(=O)c1cc(-c2ccccc2)sc1NC(=O)c1cc(OC)c(OC)c(OC)c1 | 3.59
58 | Cc1c(C(=O)Nc2ccc(S(=O)(=O)N(C)C3CCN(C)CC3)cc2)oc2ccccc12 | -29.9
59 | COc1cccc(C2=NOC(C(=O)NCCN3CCOCC3)C2)c1 (stereo not drawn) | 11.8
60 | C=CCC(=O)N1CCCC(CNC(=O)c2ccc(-c3ccccc3)cc2)C1 (stereo not drawn) | -26.3
61 | CC(=O)Nc1ccc(-c2nn[nH]n2)cc1Cl | 15.7
62 | Cc1ccc2nc(-c3ccccc3)cc(C(=O)O)c2c1 | 11.4
63 | O=C(CN1C(=O)/C(=C/c2ccccc2F)Sc2ccccc21)NCCCN1CCOCC1 | -46.9
64 | Cc1ccc(Cn2nnc3c(=O)[nH]c(C4CCN(S(=O)(=O)Cc5ccccc5)CC4)nc32)cc1 | -3.33
65 | Cc1cccc(-n2c(SCC(N)=O)nc3c(c2=O)C2(CCCCC2)Cc2ccccc2-3)c1 | -1.4
66 | CC(=O)CC(C)(C)Nc1nc2cc([N+](=O)[O-])ccc2o1 | 0.0382
67 | O=C(Nc1ccccc1Cc1ccccc1)c1oc2ccccc2c1COc1ccccc1 | 13.6
68 | NS(=O)(=O)Cc1noc2ccccc12 | 8.51
69 | Cn1cc([N+](=O)[O-])c(C(=O)Nc2ccc3nc(-c4ccccc4)[nH]c3c2)n1 | -8.74

Row | Structure (SMILES) | hERG current change (%, negative = inhibition) at 10uM [%]
70 | CCNC(=S)N/N=C(\C)c1cccc(C(F)(F)F)c1 | 26.7
71 | CCc1ccc(/C=C(/C#N)C(N)=S)cc1 | 19.1
72 | O=c1cc(CO)occ1OCc1ccccc1 | -1.9
73 | CC(=O)N1CCOc2cc(S(=O)(=O)NC(C)c3ccccc3)c(Cl)cc21 (stereo not drawn) | 3.88
74 | CC(=O)NC12CC3CC(C1)CC(C(=O)N(C)CC(=O)Nc1cccc(F)c1)(C3)C2 | -7.98
75 | CC(C)c1ccc(NC(=O)N2CCOCC2)cc1 | 14.2
76 | COc1cc(/C=N/NC(=O)C(=O)Nc2ccccn2)ccc1O | -22.4
77 | CCOC(=O)C1CCc2nc3ccccc3c(=O)n21 (stereo not drawn) | -13.6
78 | COc1ccc(C(=O)NCCN2CCOCC2)cc1OC | 4.75
79 | Cc1ccnc(NC(NC(=O)C(C)C)(C(F)(F)F)C(F)(F)F)c1 | -0.0745
80 | CCCOc1ccc(C(=O)CCNc2cccc(Cl)c2)cc1 | 31.5
81 | COc1ccc(/C=N/N=C2\SC(CC(=O)O)C(=O)N2c2ccccc2)cc1 (stereo not drawn) | 22.8
82 | CCC(C)NC(=O)CC(c1ccc(OC)cc1)n1cccc1 (stereo not drawn) | 9.54
83 | O=C(Nc1ccc(F)cc1F)c1cc(-c2ccco2)nc2ccccc12 | -13
84 | CCOc1ccc(-c2cc(N)n(S(=O)(=O)c3ccc(OC)c(OC)c3)n2)cc1 | 8.48
85 | CC1CN(c2ccc([N+](=O)[O-])cc2C(=O)N2CCOCC2)CC(C)N1 (stereo not drawn) | -9.17
86 | Cc1ccc(-c2nnn3c2nc(NCCc2ccc(S(N)(=O)=O)cc2)c2ccccc23)cc1 | 13.9
87 | N#Cc1cccc(NC(=O)c2nc(-c3ccccc3)n(-c3ccccc3)n2)c1 | -23.3
88 | CCN(CC)CCN(C(=O)c1ccc2c(c1)CCCC2)c1nc2ccc(OC)cc2s1.Cl | -5.4
89 | O=C(OCCN=C1NS(=O)(=O)c2ccccc21)C1CC(=O)N(c2ccc(Cl)cc2)C1 (stereo not drawn) | -7.04
90 | COc1ccc(CCNC(=O)C(C)c2ccc([N+](=O)[O-])cc2)cc1 (stereo not drawn) | -32.8
